Test results as given in article PMC4057743.
These are yes or no findings as the source states them, for the method shown. Some results given as binding are weak or reduced against the parent protein; the word gives no strength. Where a sequence is shown, tags or fusion partners need not be part of it.

Target: GST-AtMYB44 (Arabidopsis), Q9FDW1
Assay: pull-down; competitive: 5 μg His-RCAR1/PYL9 with 0, 5 or 25 μg His-ABI1 or 25 μg His protein on immobilized GST-AtMYB44 (5 μg); 50 mM Tris-HCl pH 7.5, 100 mM NaCl, 1 mM EDTA, 0.05% β-mercaptoethanol, 0.2% Triton X-100, 10 mM MgCl2; 4 °C, 2 h; 10 μM ABA when indicated; anti-His blot; both purified
Conditions: remark: other sources report otherwise

binding: binds
B1: His-RCAR1/PYL9, Q84MC7 1-187 (receptor)
chain: MMDGVEGGTAMYGGLETVQYVRTHHQHLCRENQCTSALVKHIKAPLHLVWSLVRRFDQPQKYKPFVSRCTVIGDPEIGSLREVNVKSGLPATTSTERLELLDDEEHILGIKIIGGDHRLKNYSSILTVHPEIIEGRAGTMVIESFVVDVPQGNTKDETCYFVEALIRCNLKSLADVSERLASQDITQ
